Test results reported in PubChem BioAssay AID1745845 (National Center for Advancing Translational Sciences (NCATS), 2022).
In all, about 360,000 compounds went through this assay and about 2,600 (0.72%) were called active. Inconclusive means that the source gave no clear call. Such entries were picked first, then a sample of the others. Calls follow the shape of the dose curve; as a rule, active = well fitted inhibition curve with a large enough effect; inconclusive = small, poorly fitted or top-dose-only effect; inactive = no such curve, though single readings can be large or run the other way. A potency beside an inconclusive call is a rough fit, not a confirmed value.

Assay: Primary qHTS for Inhibitors of ATXN expression; also: nearly all actives have a fitted effect of over 55% in size
Conditions: HEK-293 ATXN2-luciferase reporter, luminescence, 24 h; activity change, negative = inhibition: at 57 µM (top of the series)
How it was run: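 qHTS (up to 57 uM final) was run with 24 h compound exposure of reporter cells at 37 °C. Each well was multiplexed: SteadyGlo luminescence measured ATXN2-luciferase expression after a fluorogenic Gly-Phe-AFC viability readout (25 uM final).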
% is scaled to controls: 0 for no effect and ±100 for the full control effect; potency is read from the fitted curve at half-maximal effect; tags tell the direction and shape of the fitted curve.

SMILES	Potency	activity change, negative = inhibition
Cc1onc(-c2ccc(F)cc2F)c1C(=O)Nc1cccc(C(F)(F)F)c1	inconclusive: 14.1 µM [inhibitor, partial curve, poor fit]	
O=C1C2CC=CCC2C(=O)N1c1ccc(OCC(O)Cn2nnc3ccccc32)cc1 (configuration not stated)		inactive: -6.04%
COc1cc(/C=C/C(=O)OCC(=O)Nc2ccccc2Sc2ccc(Cl)cc2)ccc1O	inconclusive: 39.8 µM [inhibitor, single point]	
CC1(C(=O)NCc2ccccc2Br)CCN1C(=O)CCc1ccc(Cl)cc1Cl (configuration not stated)	inconclusive: 39.8 µM [inhibitor, single point]	
CCc1ccc(-c2nc(CN3CCCC(C(=O)N4CCN(c5cc(Cl)ccc5C)CC4)C3)c(C)o2)cc1 (configuration not stated)	active: 20 µM	
O=C(N/N=C(\c1ccccc1)c1cccnc1)c1cccc(F)c1	inconclusive: 4.47 µM [inhibitor, full curve]	
COc1cc(/C=N/O)cc(Br)c1OS(=O)(=O)c1ccc(C)cc1	inconclusive: 39.8 µM [inhibitor, single point]	
Cc1ccc2c(c1)[C@H]1[C@H](CO2)[C@H](c2ccccc2)[C@]2(C)C(=O)Nc3ccc(F)cc3C(=O)N12	inconclusive: 22.4 µM [inhibitor, partial curve]	
CCCCC[C@@H](C)N1C[C@H](COCc2ccccc2)Oc2cc(N3CC[C@@H](O)C3)ccc2S1(=O)=O	inconclusive: 35.5 µM [inhibitor, single point]	
O=C(O)CN1C2=NCCCN2c2ccccc21		inactive: -17.4%
Cc1ccc(NC(=O)COc2ccc(N(C)C(=O)C(C)(C)C)cc2)cc1S(=O)(=O)N1CCCCC1	inconclusive: 10 µM [inhibitor, partial curve]	
COc1ccc2nc(-c3ccc(N)cc3)[nH]c2c1	inconclusive: 15.8 µM [inhibitor, partial curve]	
O=C(COc1ccccc1Cl)N1CCN(c2ccc(F)cc2)CC1	inconclusive: 39.8 µM [inhibitor, partial curve, poor fit]	
OC(CNCCC1C=Nc2ccccc21)Cn1c2ccc(Cl)cc2c2cc(Cl)ccc21 (configuration not stated)	active: 31.6 µM	
O=C(/C=C/c1ccccc1Cl)c1ccccc(=O)c1O	active: 25.1 µM	
CCN(CC)C(=O)[C@H]1C[C@H](CC(=O)NC/C=C(\C)CCC=C(C)C)C(=O)N2CCc3c([nH]c4cc(CCC(=O)N(C)C)ccc34)[C@]12C	inconclusive: 39.8 µM [inhibitor, single point]	
CC(=O)Oc1c(-c2ccc(Br)o2)oc2ccccc2c1=O	inconclusive: 12.6 µM [inhibitor, single point]	
